# Laboratory results from the supplement of paper PMC4723716.
# ± gives the uncertainty stated by the source. In all, about 9,900 compounds were measured (“viability index relative to DMSO control”: median about 1, lowest 2% from about 0.85 on). The list shows a part of the results.
# Tested on: Plasmodium falciparum NF54 stage V gametocytes
# Assay: viability index relative to DMSO control (fraction); higher = less gametocyte killing
# Details: 2.5 µM, library set: Broad Institute DOS, incubation time: 72 h
# Procedure, shortened: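 Gametocytes (P. falciparum NF54, stage V) were treated with compound at 2.5 µM for 72 hr at 37°C in low oxygen, in serum-free medium at 0.75% gametocytemia and 1.25% hematocrit. Counts of 20–70 µm2 red particles, taken from one field per well after MitoTracker Red CMXRos with saponin, were divided by the plate mean of solvent-only wells. This ratio is the viability index.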
row,Structure (SMILES),viability index
1,COc1ccc(CNC(=O)C[C@H]2C[C@@H]3c4cc(N(C)C)ccc4O[C@@H]3[C@@H](CO)O2)cc1,0.982 ± 0.13
2,C[C@@H]1CCCCO[C@H](CN(C)Cc2ccncc2)[C@@H](C)CN([C@H](C)CO)C(=O)c2cc(NC(=O)Cc3ccccc3)ccc2O1,0.993 ± 0.079
3,C[C@@H]1CCCCO[C@@H](CN(C)Cc2ccc(Cl)c(Cl)c2)[C@@H](C)CN([C@H](C)CO)C(=O)c2cc(NC(=O)CCCCCC(=O)Nc3ccccc3N)ccc2O1,0.947 ± 0.062
4,CCS(=O)(=O)N1CC[C@@]2(CC1)CN([C@H](CO)c1[nH]c3cc(OC)ccc3c21)S(=O)(=O)c1ccc(C)cc1,1 ± 0.046
5,COc1ccc2c3c([nH]c2c1)[C@H](CO)N(C[C@]31CCN(CC1)C(=O)C1CCCCC1)C(=O)NC(C)C,0.913 ± 0.072
6,CN1C(=O)c2cc(NS(C)(=O)=O)ccc2OC[C@@H]2O[C@H](CC(=O)N3CCOCC3)CC[C@@H]21,0.983 ± 0.21
7,C[C@@H](NC(=O)C[C@H]1C=C[C@@H](NC(=O)c2cccnc2)[C@H](CO)O1)c1ccccc1,0.964 ± 0.034
8,C[C@@H]1CN([C@@H](C)CO)C(=O)c2c(c3ccccc3n2C)-c2ccccc2CO[C@@H]1CN(C)C(=O)Nc1ccccc1C(F)(F)F,0.955 ± 0.039
9,C/C=C/c1ccc([C@@H]2[C@@H](CO)N(Cc3nccs3)C23CN(CC2CCCC2)C3)cc1,1.08 ± 0.046
10,O=C(C[C@H]1CC[C@H]2NC[C@@H](O)COC[C@@H]2O1)N1CCc2ccccc2C1,1.03 ± 0.049
11,COC(=O)C[C@H]1CC[C@@H]2[C@H](COc3ccc(NC(=O)Nc4cccc(C#N)c4)cc3C(=O)N2C)O1,1.1 ± 0.091
12,CN(C[C@H]1N[C@H](CO)[C@@H]1c1ccc(-c2cccnc2)cc1)C(=O)NC1CCCC1,1.01 ± 0.059
13,CCCNC(=O)N1C[C@H](C)[C@@H](OC)CN(C)C(=O)c2ccc(NC(=O)CC)cc2OC[C@H]1C,1.09 ± 0.018
14,CCCNC(=O)N1C[C@]2(CCN(CC2)C(=O)c2cccc(F)c2)c2c([nH]c3cc(OC)ccc23)[C@H]1CO,0.967 ± 0.012
15,Cc1noc(C)c1S(=O)(=O)Nc1cccc2c1O[C@H](CN(C)Cc1ccc(C(F)(F)F)cc1)[C@H](C)CN([C@@H](C)CO)C2=O,0.938 ± 0.046
16,CC(C)C#Cc1ccc([C@H]2[C@@H](CO)N3C(=O)CN(C(=O)c4ccc5c(c4)OCO5)C[C@@H]23)cc1,1.03 ± 0.021
17,C[C@H]1CN([C@@H](C)CO)C(=O)CCCn2nncc2CO[C@H]1CN(C)Cc1ccccc1C(=O)O,1.06 ± 0.0015
18,O=C(C[C@H]1C[C@H]2c3cc(NS(=O)(=O)c4ccc(F)cc4)ccc3O[C@H]2[C@@H](CO)O1)NCCN1CCCCC1,1.05 ± 0.05
19,CN1C(=O)c2cc(NC(=O)Cc3cccs3)ccc2OC[C@@H]2O[C@@H](CC(=O)N[C@@H]3CCN(Cc4ccccc4)C3)CC[C@@H]21,1.11 ± 0.14
